In PubChem BioAssay AID1671194 (National Center for Advancing Translational Sciences (NCATS), 2021):
Out of some 140,000 compounds screened, about 240 (0.17%) were called active. The inconclusive results got no clear call from the source; some entries with a clear call stand among them for comparison. Calls follow the shape of the dose curve; as a rule, active = well fitted inhibition curve with a large enough effect; inconclusive = small, poorly fitted or top-dose-only effect; inactive = no such curve, though single readings can be large or run the other way. Potencies of inconclusive entries are doubtful fits and often do not repeat.

experiment: Primary qHTS assay for inhibitors of alpha-synuclein gene (SNCA) expression; conditions: HEK-293 SNCA-luciferase knock-in, luminescence, 24 h; series mostly up to 57.2 µM; also: nearly all actives have a fitted effect of over 45% in size
Potency is read from the fitted curve at half-maximal effect; tags tell the direction and shape of the fitted curve.

Row | Compound | Potency
1 | COc1cccc(CN2C(=O)OC3(CCN(Cc4ccccn4)CC3)C2(C)c2cccnc2)c1 (stereo not given) | inconclusive: 7.08 µM [inhibitor, single point]
2 | COc1ccccc1-c1nc(C(=O)NCc2ccc(F)cc2)n2ccncc12 | inactive
3 | COCc1cn2c(=O)n(C)cc(-c3ccc(OC)nc3)c2n1 | inactive
4 | COc1cccc(-c2ccc(C(=O)N3CCC(NC(=O)Nc4ccc(Cl)cc4)CC3)cc2)c1 | inactive
5 | O=C(NCCCN1CCOCC1)c1ccc(N2CC3CC(C2)[C@H]2CCCC(=O)N2C3)nc1 (stereo not given in full) | inconclusive: 7.08 µM [inhibitor, single point]
6 | COc1ccc(S(=O)(=O)NC[C@@H]2C=C(C)[C@H](CC(=O)N3CCN(c4ccccn4)CC3)C[C@H]2C(C)C)cc1 | inconclusive: 39.8 µM [inhibitor, single point]
7 | COc1ccc(CNCC2(COc3cccnc3)C[C@@H](O)[C@@H](O)C2)cc1 (stereo not given in full) | inconclusive: 11.2 µM [inhibitor, single point]
8 | CCc1ccccc1N1CC(c2nc3ccccc3n2Cc2cccc(C)c2)CC1=O (stereo not given) | inconclusive: 12.6 µM [inhibitor, partial curve, poor fit]
9 | C1=C(c2cc(-c3cccc4cn[nH]c34)cn3cncc23)CCOC1 | inconclusive: 5.62 µM [inhibitor, partial curve]
10 | O=C1N(Cc2cccnc2)C(=O)C2(CCN(Cc3cc(F)ccc3F)CC2)N1CCc1ccccc1 | inconclusive: 39.8 µM [inhibitor, single point]
11 | CC(C)(C)CC(=O)N[C@H]1C[C@H]2C(=O)Nc3cc(Cl)ccc3C(=O)N2C1 | inactive
12 | CCOC(=O)C1=CN(CC(=O)Nc2ccc(C)cc2C)S(=O)(=O)N=C1C | inconclusive: 17.8 µM [inhibitor, single point]
13 | COCCN1CCC2(CCC1=O)CN(c1ccc(C#N)cn1)CCN2C (stereo not given) | inconclusive: 8.91 µM [inhibitor, single point]
14 | CS(=O)(=O)N1CCC(C2CCN(C(=O)c3ccc4[nH]ccc4c3)C2)CC1 (stereo not given) | inactive
15 | Cn1nccc1-c1cccc(CCOc2cnc3c(ccn3CC(=O)O)c2)c1 | inactive
16 | CCN(C(C)=O)C1CCN(c2nc(CCN)nc3sc(C)c(C)c23)C1 (stereo not given) | inactive
17 | COc1ccc(Cl)cc1NC(=O)Cn1ccn2nc(-c3ccccc3)c(CO)c2c1=O | inconclusive: 12.6 µM [inhibitor, partial curve, poor fit]
18 | CCOC(=O)C1CCN(C(=O)CSc2c3c(nc4ccc(Cl)cc24)CCCC3)CC1 | inconclusive: 15.8 µM [inhibitor, partial curve, poor fit]
19 | Cc1ccc(-c2noc([C@@H]3Cc4nc[nH]c4CN3C(=O)c3ccccc3)n2)cc1 | inconclusive: 5.01 µM [inhibitor, full curve]
20 | COc1ccc(CCC(=O)NC2CC(=O)N(c3ccc(C)c(C)c3)C2)cc1 (stereo not given) | inconclusive: 14.1 µM [inhibitor, partial curve]
21 | O=[S+]([O-])(Nc1cccnc1)c1ccc2c(c1)OCCN(Cc1cncnc1)C2 | inactive
22 | CSc1cccc(NC(=O)CN2C(=O)COc3ccc(S(=O)(=O)N4CCC(C)CC4)cc32)c1 | inconclusive: 14.1 µM [inhibitor, partial curve, poor fit]
23 | COCCc1noc([C@@H]2CN(Cc3ccc(C)o3)C[C@H]2CO)n1 | inactive
24 | COc1ccc(-c2noc(CC3CCN(C(=O)c4cc(OC)cc(OC)c4)CC3)n2)cc1 | inconclusive: 1 µM [inhibitor, full curve, poor fit]

Row | Compound | Potency
25 | Cc1noc(C)c1-c1cnc(Nc2ccc(F)c(Cl)c2)c2c1CCO2 | inactive
26 | CC#CCn1cc2c3c(cccc31)[C@H](CC(C)C)N[C@H](C(=O)NCc1ccccc1)C2 | inactive
27 | CN1CCCC1c1nc(C2CN(C(=O)c3ccoc3)C2)no1 (stereo not given) | inconclusive: 39.8 µM [inhibitor, single point]
28 | COc1ccc(CNc2nc(-c3ccc(N(C)C)cc3)nc3ccccc23)c(OC)c1 | inconclusive: 28.2 µM [inhibitor, single point]
29 | COc1cccc(CN2C[C@@H](F)[C@@H](OCc3nc4ccccc4o3)C2)n1 | inactive
30 | Cc1ccc(NC(=O)CN2C(=O)NC3(CCCCC3)C2=O)cc1C | inactive
31 | Cc1ccc(N2CC(NC(=O)C3CC3)CC2=O)cc1C (stereo not given) | inconclusive: 39.8 µM [inhibitor, single point]
32 | CCn1cc(CN2CCN(Cc3ccccc3)CC2)ccc1=O | inactive
33 | COCCc1noc(C2CNC2)n1 | inconclusive: 22.4 µM [inhibitor, partial curve, poor fit]
34 | O=C(c1ccccc1)N1CCn2c(nn(-c3ccc(F)cc3)c2=O)C1 | inactive
35 | C[S+](=O)([O-])NC1CCCN(Cc2ccc(-c3cncnc3)cc2)C1 (stereo not given) | inactive
36 | OCc1cccc(-c2cc3c(cn2)CN(CCc2ccccc2)CCN3)c1 | inactive
37 | O=C(CCc1ccccc1)N1CCNc2cnc(Nc3ccc(-n4ccnc4)cc3)nc2C1 | inconclusive: 2.24 µM [inhibitor, partial curve, poor fit]
38 | COC1CCCN(C(=O)c2cc(-c3ccc(F)cc3)cc3ncn(C)c23)C1 (stereo not given) | inactive
39 | CCCCCc1nn2cc(-c3ccccc3)nc2s1 | inconclusive: 7.94 µM [inhibitor, full curve, poor fit]
40 | CN(Cc1cccc2cnccc12)C(=O)c1cc(COc2ccc(F)cc2F)on1 | inconclusive: 8.91 µM [inhibitor, partial curve, poor fit]
41 | O=C(NCc1cccnc1)c1nc(-c2ccc(F)cc2)c2cnccn12 | inactive
42 | Cc1cc(-c2cnc3[nH]cc(CC(=O)NCc4cccnc4)c3c2)ccn1 | inactive
43 | O=C1CCCCC(Cc2ccccc2)(C(=O)N2CCc3ccccc3C2)N1 (stereo not given) | inconclusive: 6.31 µM [inhibitor, single point]
44 | O=C(Cn1nc2c(cc1=O)CCCC2)NCc1nc2ccccc2[nH]1 | inconclusive: 8.91 µM [inhibitor, single point]
45 | Cc1nc(N2CCC(C(=O)NC3CCCCCCC3)CC2)cc(C(F)(F)F)n1 | inactive
46 | CCC(=O)N1CCCN(c2ccnc3ccnn23)CC1 | inactive
47 | O=C(COc1ccc(Cl)cc1)N1CCN(c2ccccc2)C(=O)C1 | inconclusive: 3.98 µM [inhibitor, single point]
48 | CCCc1nnc([C@H]2CCN(Cc3ncc[nH]3)C2)o1 | inactive

Row | Compound | Potency
49 | Cc1nc(CN2C[C@H](C(=O)N3CCN(c4ccccn4)CC3)C[C@@H]2c2ccc(F)cc2)cs1 | inactive
50 | OC1CCOC2(CCN(Cc3ccc[nH]3)CC2)C1 (stereo not given) | inconclusive: 1.41 µM [inhibitor, partial curve, poor fit]
51 | O=C(Nc1ccccc1)C1CCN(C(=O)N2CC3CC(C2)[C@H]2CCCC(=O)N2C3)CC1 (stereo not given in full) | inactive
52 | Cc1cccc(C(=O)Nc2nc(-c3nnn(-c4cc(C)ccc4C)c3C)ns2)c1 | inconclusive: 11.2 µM [inhibitor, partial curve, poor fit]
53 | COc1ccc(CNC(=O)C2CCN(c3cc(C(F)(F)F)nc(C)n3)CC2)c(OC)c1 | inactive
54 | O=C1OC2(CN(c3ccc4c(c3)OCO4)C2)CN1c1ccccc1 | inconclusive: 22.4 µM [inhibitor, partial curve, poor fit]
55 | O=C(NCc1ccccc1)N1CCC(N2C(=O)C3(CCCC3)C2c2ccccc2)CC1 (stereo not given) | inconclusive: 39.8 µM [inhibitor, partial curve, poor fit]
56 | O=[S+]([O-])(NC1CCN(c2nccc(Nc3ccccc3F)n2)CC1)c1ccccc1 | inactive
57 | CC1(C(=O)NCc2cnccn2)CCc2cnc(NCc3ccccc3)nc21 (stereo not given) | inconclusive: 20 µM [inhibitor, partial curve, poor fit]
58 | COc1ncccc1-c1nc(-c2c(C)noc2C)cc2c1cc(C)n2CCN(C)C | inactive
59 | CS(=O)(=O)N1CCCN(c2cc(C3CC(O)C3)nc(N)n2)CC1 (stereo not given) | inconclusive: 2.24 µM [inhibitor, full curve]
60 | COC(=O)CNC(=O)c1ccc2oc(-c3ccncc3)nc2c1 | inconclusive: 12.6 µM [inhibitor, single point]
61 | CC(=O)Nc1ccc(CN2CCC3(CC2)CC(c2cccnc2)=NO3)cc1 | inconclusive: 15.8 µM [inhibitor, partial curve]
62 | Cc1ccc(-c2noc([C@@H]3Cc4nc[nH]c4CN3C(=O)CCCC(=O)O)n2)cc1 | inconclusive: 15.8 µM [inhibitor, partial curve, poor fit]
63 | COCCn1nc2n(c1=O)CCN(C(=O)c1ccc(OC)nc1OC)CC2 | inactive
64 | CC1(NC(=O)C2CC2)CN(Cc2nc(-c3ccc(Oc4ccccc4)cc3)cs2)C1 | inconclusive: 11.2 µM [inhibitor, partial curve]
65 | COc1ccc(CCNC(=O)C2CCCN(c3nccc(Nc4ccccc4F)n3)C2)cc1 (stereo not given) | inconclusive: 1.78 µM [inhibitor, full curve]
66 | COc1ccc(NC(=O)CSc2nncn3c2cc2occc23)c(OC)c1 | inconclusive: 39.8 µM [inhibitor, single point]
67 | COc1ccc(-c2noc([C@@H]3C[C@H](NCc4ccc(F)cc4)CN3C)n2)cc1 | inactive
68 | Cc1ccccc1C(=O)N1CCCC1C(=O)N1CCCC1c1nc2ccncc2[nH]1 (stereo not given) | inactive
69 | Cc1nccn1CCNC(=O)C12CCCC=C1N(C1CCCC1)C(=O)CC2 (stereo not given) | inconclusive: 0.631 µM [inhibitor, partial curve, poor fit]
70 | Cc1cc(=O)n(CC(=O)Nc2ccc(Cl)cc2)c(N2CCc3ccccc3C2)n1 | inconclusive: 39.8 µM [inhibitor, single point]
